Experimental data taken from PubChem BioAssay AID463173 (ICCB-Longwood Screening Facility, Harvard Medical School, 2010).
Hit rate of the full screen: of about 52,000 compounds, about 1,700 (3.3%) were called active. No stated cut-off is given here; in the data, active means survival mostly below about 52% (no sharp cut-off); inactive means mostly above about 56%. The list shows a part of the results.

Test system: Wild type
Experiment: S. aureus survival, RN4220 and DeltatarO strains – OD600, teichoic acid synthesis inhibitors, primary screen (AID 463173)
Conditions: S. aureus RN4220 wild type/DeltatarO growth, OD600, 18 h, active compounds read low, screened at 18.75 µg/mL (by protocol)

| Compound | survival |
| --- | --- |
| Cn1c(=O)c2cc(C(=O)NCCCN3CCN(c4ccccc4F)CC3)sc2c2ccccc21 | inactive: 78% |
| Cc1ccc(-n2c(=O)c3ccc(C(=O)NCc4ccco4)cc3n(Cc3ccccc3C#N)c2=O)cc1 | inactive: 130% |
| O=C(OCC1CCNCC1)c1ccc(F)cc1 | inactive: 103% |
| Cc1ccc(-c2cn(-c3cccc(Cl)c3)c(S(=O)(=O)CC(=O)Nc3ccccc3F)n2)cc1 | inactive: 70% |
| CCN(CC)c1cc2c(cc1F)c(=O)c(S(=O)(=O)c1cccc(C)c1)cn2C | inactive: 112% |
| CCOc1ccc(C2CC(=O)N(c3cccc(F)c3)C3=C2C(=O)OC3)cc1 (centres undefined) | inactive: 160% |
| Cc1ccc(-n2nc3c(=O)n(CCCC(=O)NCCc4ccccc4Cl)nc(C)c3c2C)cc1 | inactive: 77% |
| COc1ccc(NC(=O)c2ccc3c(c2)sc2nc(-c4ccc(OC)cc4)cn23)cc1 | inactive: 85% |
| Cc1ccc(NC(=O)Cn2c(=O)n(Cc3ccco3)c(=O)c3ccccc32)c(C)c1 | inactive: 90% |
| Cc1ccc2c(c1)c1c(c(=O)n(-c3cccc(Cl)c3)c(=O)n1CC(=O)N1CCCC1)n2C | inactive: 73% |
| COc1cc(C2c3c(oc4cc(C)c(C)cc4c3=O)C(=O)N2CCCN2CCOCC2)ccc1O (centres undefined) | inactive: 77% |
| CCOC(=O)c1cc(S(=O)(=O)Nc2ccc(Br)c(C)c2)[nH]n1 | inactive: 67% |
| Cc1n[nH]c(C)c1N1C(=O)c2cccc3c(N4CCCCC4)ccc(c23)C1=O | inactive: 116% |
| Cc1c(C(=O)N2CCC(c3nc4ccccc4s3)CC2)oc2cc(Br)ccc12 | inactive: 116% |
| CCCCn1c(SCC(=O)OC)nc2ccccc2c1=O | inactive: 103% |
| CCOc1ccc(-n2c(SCc3nc(-c4ccc(OC)cc4)no3)nnc2-c2ccncc2)cc1 | inactive: 79% |
| COc1ccc(Br)cc1CNC(=O)c1cc(=O)[nH]c2ccc(S(=O)(=O)N3CCCC3)cc12 | inactive: 68% |
| CCOc1cccc2cc(-c3nc4sc5c(c4c(=O)[nH]3)CCC(C(C)(C)C)C5)c(=O)oc12 (centres undefined) | inactive: 85% |
| CCCNC(=O)c1cc2nc(-c3ccc(Br)cc3)cc(C(F)(F)F)n2n1 | inactive: 86% |
| COc1ccc(Br)cc1CNC(=O)c1cc2ccccn2n1 | inactive: 73% |
| O=C(COC(=O)c1cc(-c2cccs2)nc2ccccc12)c1ccc(Br)cc1 | inactive: 131% |
| CCOc1ccccc1NC(=O)Cn1c(=O)n(CCC(C)C)c(=O)c2cccnc21 | inactive: 85% |
| Cc1cc(C)cc(OCCn2c(C3CC(=O)N(c4ccccc4Cl)C3)nc3ccccc32)c1 (centres undefined) | inactive: 97% |
| CC1=C(C(=O)Nc2ccccc2)C(c2ccccc2C)n2ncc(C(=O)Nc3ccccc3)c2N1 (centres undefined) | inactive: 136% |
